{"source": "the antibiotic and cytotoxicity screens of Wong et al. (2023)", "note": "The other results are listed elsewhere or left out.", "data": [{"system": "HepG2", "test": "cytotoxicity call (relative viability < 0.9)", "settings": "10 µM", "values": [{"smiles": "C[C@@H]1CCCCO[C@@H](CN(C)S(=O)(=O)c2cccs2)[C@@H](C)CN([C@H](C)CO)C(=O)c2cc(NS(C)(=O)=O)ccc2O1", "cytotoxicity call": "inactive"}, {"smiles": "COC(=O)[C@@H](Cc1ccc(-n2cc(COc3ccccc3/C=C(C)/C=C/C(=O)NO)nn2)cc1)N1CC2=C[C@H](C3CC3)n3c(=O)n(C)c(=O)n3[C@@H]2[C@H]1[C@H](O)Cc1ccccc1", "cytotoxicity call": "inactive"}, {"smiles": "O=C(C[C@@H]1CC=CCCC(=O)OC[C@@H](Cc2c[nH]c3ccccc23)NC1=O)N[C@@H](CO)Cc1ccccc1", "cytotoxicity call": "inactive"}, {"smiles": "C[C@@H]1CCCCO[C@@H](CN(C)C(=O)CCCN(C)C)[C@@H](C)CN([C@H](C)CO)C(=O)c2cc(NS(=O)(=O)c3cn(C)cn3)ccc2O1", "cytotoxicity call": "inactive"}, {"smiles": "O=C(O)CC[C@H](NC(=O)CCn1nnc2ccccc2c1=O)C(=O)O", "cytotoxicity call": "inactive"}, {"smiles": "Cc1ccc(S(=O)(=O)Nc2ccc3c(c2)C(=O)N([C@@H](C)CO)C[C@H](C)[C@@H](CN(C)S(=O)(=O)c2cn(C)cn2)O3)cc1", "cytotoxicity call": "inactive"}, {"smiles": "COCC#Cc1cnc2c(c1)C(=O)N([C@@H](C)CO)C[C@H](C)[C@H](CN(C)C(=O)Nc1ccccc1OC)O2", "cytotoxicity call": "inactive"}, {"smiles": "Cc1noc(C)c1NC(=O)N(C)C[C@H]1Oc2ccc(NS(=O)(=O)c3c(C)noc3C)cc2C(=O)N([C@@H](C)CO)C[C@@H]1C", "cytotoxicity call": "inactive"}, {"smiles": "O=C(CN1CCOCC1)NCC[C@H]1CC[C@H](NS(=O)(=O)c2ccc(F)cc2)[C@@H](CO)O1", "cytotoxicity call": "inactive"}, {"smiles": "CC(C)(CN)CN1CCCCCC1", "cytotoxicity call": "inactive"}, {"smiles": "C[C@@H]1CN([C@@H](C)CO)C(=O)c2cc(NS(C)(=O)=O)ccc2O[C@@H](C)CCCCO[C@H]1CN(C)Cc1ccc(C(F)(F)F)cc1", "cytotoxicity call": "inactive"}]}]}
